This passage reports self-cleavage results from the RNAGym collection of RNA variant scans (doi:10.1093/nar/gkz1192).

The chains are these.
B1: CPEB3 Ribozyme (parent)
chain: UAACAGGGGGCCACAGCAGAAGCGUUCACGUCGCAGCCCCUGUCAGAUUCUGGUGAAUCUGCGAAUUCUGCUGUAUAUCUC

Read counts are not given, so values of variants with three or more changes are uncertain.

The data set covers variants of B1. The data set can be described thus: self-cleavage, relative activity (ratio to wild type); higher = more cleavage; in vitro, sequencing. The essentials:
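Libraries of CPEB3 self-cleaving ribozyme mutants came from rounds of error-prone PCR and carried barcodes, which DNA sequencing matched to variants. In vitro transcription used T7 RNA polymerase at 37°C for 5 hours, with a further 15 min in DNase I before EDTA stopped the reaction; the ribozymes cleaved during both steps. The RNA was reverse transcribed with template switching and sequenced on Illumina. Relative activity is the cleaved/total read fraction of a variant divided by that of the unmutated ribozyme, averaged over three batches with at least 5 reads.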
As for A2G U26C G46C A47U U49C U58C U80C, the self-cleavage was 0.04.

Turning to A2U A13C U26A U31C U60A, the self-cleavage was 0.12. The result for A2G U43C A57G reads 0.36. Take A2G U25C A45G G46U U49A U67C U78A: the self-cleavage came out at 0.19. Regarding A2U G22C A65U, the self-cleavage amounted to 0.1. In the case of A2G U25C A28U U74C, the self-cleavage is 0.53. With A2U A5G A15G C27U G33C A47G U76C, the self-cleavage was 0.15. Regarding A2U A45G U66A, the self-cleavage amounted to 0.56. Take A2U C17A A64U: the self-cleavage is 0.11. Turning to A2U A13U A18U U25A A64U U69A G73C, the self-cleavage was 0.15.

For A2G U60A A64G, the self-cleavage was 0.11. For A2G U66C U72C, the self-cleavage came out at 0.22. A2G G24A U26C A77G: the self-cleavage worked out at 0.34.

For the variant A2U A13C A35G A47U G53A U76C U80A, the self-cleavage was determined as 1.26. As to A2U A15C C38U U58C A64G U76A, the self-cleavage amounted to 0.03. A2G G8C G9U A18U A75G: the self-cleavage stood at 0.46. As to A2U A15U U43C U80C, the self-cleavage was 0.23. The same measure for A2U A5U A15G A20G A45G U54A U72C: 0.89. As for A2U A15U A20U C38A U54C A64U U72A, the self-cleavage amounted to 0.05.

Regarding A2U A15G G33C A35G A45C U80C, the self-cleavage worked out at 0.06. Consider A2G G10A A64G, for which the self-cleavage worked out at 0.31. On to A2U A21G A47G A65U, for which the self-cleavage came out at 0.14. The same measure for A2G U26C U54C: 0.32; for A2U A5G U49A A65U: 0.42; for A2U C17U U48C U67C U72C: 0.06. The result for A2U A20G A28U U31C G33A U74C reads 0.23; that for A2U A5G A15G U80A, 0.85; that for A2G U41C U49A, 0.17.

For A2U A28G C39G U43C A56G G73A A77U, the self-cleavage turned out to be 0.06. With A2G G9A A18U A56U, the self-cleavage is 0.07.

With A2G U26C A64G C71U U80C, the self-cleavage came to 0.32. Consider A2G G8U U26A U41C U49C G63A U78C, for which the self-cleavage was determined as 0.05. Turning to A2U A15G A28C G33A G55U, the self-cleavage was determined as 0.23. A2G U25C A45G U49A U67C U78A: the self-cleavage worked out at 0.22. The same measure for A2U G6U U26C A28G: 0.07. With A2U A3U A56G, the self-cleavage was 1.1. For the variant A2G G16C U31A A35U A56G, the self-cleavage came to 0.09.

Take A2G U26C C34G A47G: the self-cleavage is 0.44. Turning to A2G G36U U51A, the self-cleavage came to 0.07. Turning to A2G G52A U69G, the self-cleavage amounted to 0.44. Turning to A2U A56G U80C, the self-cleavage was determined as 1.09. As for A2G G7U U48C U54C A57G, the self-cleavage was found to be 0.34.

Take A2G U49C A57G: the self-cleavage came to 0.28.

Consider A2U A3U A15U A28G A47G U48A U72A, for which the self-cleavage stood at 0.32. A2G G9U U25C: the self-cleavage is 0.29. Consider A2U A15G G16A A28U G52A U54A, for which the self-cleavage is 0.09.

For the variant A2U A20U U49C U72G, the self-cleavage stood at 0.26.

On to A2G U26C A75G, for which the self-cleavage turned out to be 0.2. Consider A2U A56U U69C, for which the self-cleavage came out at 0.25. Regarding A2U C29U A35U U41C C81U, the self-cleavage worked out at 0.3. As to A2U C23G A35G A64G U80C, the self-cleavage worked out at 0.12. The same measure for A2G U41A U72A: 0.37; for A2G U26A U31C A47G: 0.37. Regarding A2G G7U U74A, the self-cleavage came to 0.54. Take A2G G8A A28U U43A A45G: the self-cleavage was determined as 0.24. In the case of A2U A28G C39G A56G U78C, the self-cleavage worked out at 0.2. With A2U A18U A20G C50A G70U, the self-cleavage was found to be 0.26. Take A2G U25A U41C U58A U72C U78A: the self-cleavage came out at 0.06. Regarding A2U A13G U26A U60C, the self-cleavage turned out to be 0.33. The result for A2G G33C U41C U43A U69C U72C reads 0.06; that for A2G U51A U54C U72C, 0.58; that for A2U A13G A20G U80C, 0.43. A2G G10U C50A U51A G73A U78C: the self-cleavage was 0.28. Turning to A2U A3G A21G U26A U51C A64G, the self-cleavage is 0.28.

On to A2U A20G U41C U43A, for which the self-cleavage stood at 0.66. For A2G U78A U80A, the self-cleavage was found to be 1. For the variant A2G U58A U69C, the self-cleavage was found to be 0.16. With A2G U43C U51A U66A, the self-cleavage worked out at 0.22.

As for A2U A28G U54C A64U A65U, the self-cleavage was determined as 0.13.

For the variant A2U A65G A77G, the self-cleavage is 0.4. For the variant A2G G30A A35G U43G, the self-cleavage was 0.26. Turning to A2G U41A A64U U69G U76C U80C, the self-cleavage came to 0.36.

For the variant A2G G8A U80A, the self-cleavage is 0.08.

For A2U A18U U31C, the self-cleavage stood at 0.39. Take A2G G9U A35U: the self-cleavage worked out at 0.25. For A2U A28G U60C U69A, the self-cleavage worked out at 0.13.

Take A2U A15U U25C U49A A64G U72A: the self-cleavage is 0.06.

With A2U A18G U26C A45G U69C, the self-cleavage was 0.13. In the case of A2U A5U G7A A35G A56U A57G U76C, the self-cleavage came to 0.11. Take A2G G10U C50A U51A U78C: the self-cleavage came to 0.21. In the case of A2G G24A A64G, the self-cleavage was determined as 0.26. Turning to A2G U60C U67C U76C, the self-cleavage is 0.16. As to A2G U25C C81A, the self-cleavage is 0.6.

A2U A18U C23U A45U: the self-cleavage was found to be 0.23. Consider A2G U43C G46A U54C, for which the self-cleavage is 0.1. The same measure for A2G U41C A56G U60A U78C: 0.16; for A2U A13U G73C: 1.24; for A2G U31C U43C: 0.19. Take A2G U25C U41A: the self-cleavage was found to be 0.45. For the variant A2U G30A U41C U54C U60A A64U A77U, the self-cleavage worked out at 0.1. In the case of A2U A45G U51C U54C A64G U66A, the self-cleavage came to 0.22. For A2G U26A U54A A75G, the self-cleavage was determined as 0.3.

For A2U C59G U60G, the self-cleavage amounted to 0.15. In the case of A2U A5U A13U A15C G24U U72C, the self-cleavage worked out at 0.5. The result for A2U C29U A65U reads 0.19; that for A2U A18G U26C A28G U41G U69C, 0.07. In the case of A2U A65U U66C, the self-cleavage is 0.17. On to A2U A15G A47U, for which the self-cleavage was found to be 0.37. On to A2G G33A C40U U41C G42C U60C, for which the self-cleavage was 0.09. The result for A2U A20G U25C G70A reads 0.25. As for A2U A5U U41C U43C U72G, the self-cleavage was 0.41. The result for A2U A56U U58A reads 0.17; that for A2G U41A U49C A57G U72A U76A, 0.04; that for A2U A47G U48C G70C U80C, 0.16. As for A2G U31C A47U U76C, the self-cleavage was 0.27.

Take A2G U43C U76C: the self-cleavage is 0.62. A2U G33U A57G: the self-cleavage was 0.26. Turning to A2G G16U A18G U25C U78C, the self-cleavage was found to be 0.39.

Consider A2G U58G U66C A77G, for which the self-cleavage is 0.52. The same measure for A2U A13U A21G G52A A57U: 0.41. Consider A2G U26C C39U U43C U78C U80C, for which the self-cleavage was found to be 0.04.

Regarding A2G G30A U67C C79G, the self-cleavage amounted to 0.05. The result for A2U G30U A35G reads 0.16. Consider A2U A5G U48C U60C, for which the self-cleavage turned out to be 0.34. The same measure for A2U A5G A21G C34G U67A U80C: 0.08; for A2G G30C G46C A57U G63A: 0.18; for A2G U41A A47G U51A G52A: 0.11.

Take A2G U48A U58C U72A: the self-cleavage turned out to be 0.21. In the case of A2G G8C A18G U31A U54C A77C U78G, the self-cleavage is 0.03. For A2U A56G A75G U80A, the self-cleavage turned out to be 0.85. The same measure for A2U A21G A45G U69C: 0.09; for A2U A3G C40A A47U U58C U69C: 0.16; for A2G G9U A18G U31C: 0.39. The same measure for A2U A35U U72A: 0.22; for A2U G7A A45G U54A: 0.06; for A2U A13G U31C U74C: 0.45.

In the case of A2G U51C U78A, the self-cleavage is 0.49. For the variant A2G G10A A20G, the self-cleavage came to 0.37. Regarding A2U A13U A18G G19A, the self-cleavage turned out to be 0.08. The result for A2G U51A U69A reads 0.31. In the case of A2G U31A U43C, the self-cleavage stood at 0.39. The same measure for A2U G8A C12A G33U A45G: 0.18.

Consider A2G G8A G42A, for which the self-cleavage is 0.1. In the case of A2G G7U A20C U41G U67A U76A, the self-cleavage turned out to be 0.03. On to A2U C11U A13G A28G A65G U69A, for which the self-cleavage came to 0.16. For the variant A2U A20G G30A A35G U51C A56U, the self-cleavage was 0.17. Consider A2U G10A A45U U49C A64U, for which the self-cleavage was found to be 0.12.

In the case of A2G U26C A28C U51C A65U U67C A75U, the self-cleavage was found to be 0.08. The same measure for A2U A18C A28G U49C U67G: 0.04; for A2G G16U U49C A56U U58C: 0.11. Take A2G G8A A15G A35G U41G U43C A77U: the self-cleavage turned out to be 0.04. With A2U G10A U49C, the self-cleavage was determined as 0.07. As to A2G U43A A56G, the self-cleavage stood at 0.76. On to A2G G30A A45U, for which the self-cleavage was found to be 0.27. A2U A13C A20G U25C G73A: the self-cleavage was found to be 0.11.

Turning to A2U G9U G10U U41C, the self-cleavage worked out at 0.06.

Take A2U C4U A21G: the self-cleavage was 0.98. On to A2G U31A U80C, for which the self-cleavage is 0.5.

Turning to A2U G6A A28G G33C U43A, the self-cleavage is 0.07.

For the variant A2U A13U U26A U31C C38G U66G U80C, the self-cleavage is 0.04. For A2U A5G A13U A20G U66C, the self-cleavage worked out at 0.39.

On to A2G U48C A56U, for which the self-cleavage was 0.13. With A2U A3G G16A C17U A45C U49C, the self-cleavage came to 0.19. As for A2G G8U A21G, the self-cleavage is 0.06.

As to A2U G9C A57G, the self-cleavage was 0.37. As for A2U A15C U25A, the self-cleavage was 0.39.

A2U G8A U41C: the self-cleavage was determined as 0.42. Regarding A2U G6A A35G C40U A47G U49A A57G, the self-cleavage came out at 0.07.

As to A2G G33C A45G G52A A56U, the self-cleavage stood at 0.16. As for A2U G33C A57G A64C U78C, the self-cleavage was determined as 0.13.

Consider A2G G33C C39A U48C U74C A75C, for which the self-cleavage is 0.22. With A2G G7U C14U U74C, the self-cleavage was found to be 0.1. Consider A2G G33A U43C A57G U74A, for which the self-cleavage was 0.06. On to A2G G9A A20G U78C, for which the self-cleavage was found to be 0.32. As for A2G U26C U54C A56U U80C, the self-cleavage worked out at 0.16. The result for A2U A18G A20U U72A A77G reads 0.12. In the case of A2G U31A U67C, the self-cleavage came out at 0.3.
